# According to the supplement of paper PMC7826260:
# The other results are listed elsewhere or left out. The data describe in vitro nicking of single-stranded DNA by Rep domains (1 h at 37 °C, 3 µM enzyme); the outer parts of the 90-letter strands are left off. Numbers give uncut DNA relative to the enzyme-free pool, as log2; strong cutting gives strongly negative numbers. There is no active / inactive call. Reads are scaled to the total, so uncut sequences can rise above 0 when many others are cut.
# Test system: T1, Rep nickase domain of tomato golden mosaic virus
# T1 sequence (residues 1-124 of Rep, tag left off): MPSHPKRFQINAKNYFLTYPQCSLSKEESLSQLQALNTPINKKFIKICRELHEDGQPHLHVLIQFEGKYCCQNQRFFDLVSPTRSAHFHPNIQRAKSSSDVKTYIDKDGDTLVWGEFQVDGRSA
# Assay: uncleaved DNA left, log2 of reads against the no-enzyme library (log2 ratio); higher = less cleavage (more negative = more Rep cleavage of the k-mer); sequences stand for … in CTCGTCCG…ACCGGAGA
# Method: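 A pool of 90-nt single-stranded DNAs with seven random bases just before the constant AC of the nick site (name = the seven bases) was cut by 3 µM recombinant His6-SUMO-tagged Rep nickase domain (300 nM DNA, 50 mM HEPES pH 8.0, 50 mM NaCl, 1 mM MnCl2, 1 h, 37 °C, three replicates). Uncut DNA was amplified and sequenced.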
row,Sequence,uncleaved DNA left (log2)
1,TCTGTAC,0.00586
2,TGTAGCT,-0.0181
3,TTTGTGT,0.000591
4,TAGTTCC,-0.154
5,AGGGTGA,0.1
6,GACAGGT,-0.0236
7,GGTCATT,-0.16
8,ATTAACA,0.0596
9,GGATACA,-0.0289
10,CCCCATG,-0.163
11,GGCTCTT,-0.137
12,CTTTTGC,-0.119
13,CCGCCAG,0.185
14,AATATAT,0.0317
15,AGCATCC,0.000449
16,TGCCTAG,0.112
17,CATGGAG,0.142
18,ATTTCCT,-0.0319
19,AGACTCC,-0.0107
20,AGCACAC,0.00391

row,Sequence,uncleaved DNA left (log2)
1,GTAAAGA,0.113
2,TGACCGC,-0.128
3,GAGTTTA,0.0674
4,CCATCTA,0.0675
5,TATGTTA,-0.135
6,GGGGGTT,-0.0316
7,GTGTACA,0.0447
8,AAAAGAA,0.198
9,TGGACTT,-0.168
10,CGCGGTT,0.18
11,AAGGTAC,0.0263
12,TTACATG,-0.125
13,AGGGGAC,0.0661
14,TCTAGCT,-0.0646
15,GAGGTTT,0.0411
16,GATCGTC,0.0627
17,GTCTAAG,0.202
18,GTTGAAG,0.146
19,CTATCCG,-0.081
20,TGCCTTA,-0.00168
